Source: patent US20250057819A1, “DRUG COMBINATIONS FOR INHIBITING CORONAVIRUS REPLICATION” (priority 2021, published 2025)
Counter-ions that a name gives are not always drawn.

What was measured:
[1] = tested on: rHCoVs-OC43; experiment: microbe, parasite or virus in culture; assay type: cell-based; settings: for EC50: HRT-18, 48 h
[2] = Cell viability assay (MTT) in HRT-18 cells; settings: human, CC50 (μM), drug alone, 48 h treatment

Row | Structure (SMILES) | IC50 ([1]; 48 h) | EC50 [1] | CC50 at 48 h [2] | IC50 [1]
1 | CN1CCC[C@@H]1CCO[C@](C)(c1ccccc1)c1ccc(Cl)cc1 [Clemastine fumarate] | 5 µM | 5 µM | – | –
2 | CCN(CC)CCOc1ccc(C(=C(Cl)c2ccccc2)c2ccccc2)cc1 [Clomiphene citrate] | 4.5 µM | 4.5 µM | – | –
3 | CN(C)CCCN1c2ccccc2CCc2ccc(Cl)cc21 [Clomipramine hydrochloride] | – | 3.8 µM | – | –
4 | CC(C)(C)c1ccc(C(=O)CCCN2CCC(OC(c3ccccc3)c3ccccc3)CC2)cc1 [Ebastine] | – | > 10 µM | > 10 µM | –
5 | CN[C@H]1CC[C@@H](c2ccc(Cl)c(Cl)c2)c2ccccc21 [Sertraline hydrochloride] | – | 2.3 µM | – | –
6 | CC/C(=C(\c1ccccc1)c1ccc(OCCN(C)C)cc1)c1ccccc1 [Tamoxifen] | – | 3.4 µM | – | –
7 | CSc1ccc2c(c1)N(CCC1CCCCN1C)c1ccccc1S2 (stereo not drawn) [Thioridazine hydrochloride] | 1 µM | 1 µM | – | 1 µM
